Experimental data: article PMC4336329 (PLoS ONE, 2015)
About 14,000 (4.5%) of roughly 310,000 compounds showed an effect of 50% or more. The effect is printed as a negative number. The list shows a part of the results.

Target: human ether-à-go-go-related gene (hERG) potassium channel (human, UniProt Q12809)
Experiment: primary screen, population patch clamp on CHO cells stably expressing hERG
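Also: peak tail current of the secondary pulse compared with the same well before compound.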

Sequence of human ether-à-go-go-related gene (hERG) potassium channel (Q12809 whole entry, looked up): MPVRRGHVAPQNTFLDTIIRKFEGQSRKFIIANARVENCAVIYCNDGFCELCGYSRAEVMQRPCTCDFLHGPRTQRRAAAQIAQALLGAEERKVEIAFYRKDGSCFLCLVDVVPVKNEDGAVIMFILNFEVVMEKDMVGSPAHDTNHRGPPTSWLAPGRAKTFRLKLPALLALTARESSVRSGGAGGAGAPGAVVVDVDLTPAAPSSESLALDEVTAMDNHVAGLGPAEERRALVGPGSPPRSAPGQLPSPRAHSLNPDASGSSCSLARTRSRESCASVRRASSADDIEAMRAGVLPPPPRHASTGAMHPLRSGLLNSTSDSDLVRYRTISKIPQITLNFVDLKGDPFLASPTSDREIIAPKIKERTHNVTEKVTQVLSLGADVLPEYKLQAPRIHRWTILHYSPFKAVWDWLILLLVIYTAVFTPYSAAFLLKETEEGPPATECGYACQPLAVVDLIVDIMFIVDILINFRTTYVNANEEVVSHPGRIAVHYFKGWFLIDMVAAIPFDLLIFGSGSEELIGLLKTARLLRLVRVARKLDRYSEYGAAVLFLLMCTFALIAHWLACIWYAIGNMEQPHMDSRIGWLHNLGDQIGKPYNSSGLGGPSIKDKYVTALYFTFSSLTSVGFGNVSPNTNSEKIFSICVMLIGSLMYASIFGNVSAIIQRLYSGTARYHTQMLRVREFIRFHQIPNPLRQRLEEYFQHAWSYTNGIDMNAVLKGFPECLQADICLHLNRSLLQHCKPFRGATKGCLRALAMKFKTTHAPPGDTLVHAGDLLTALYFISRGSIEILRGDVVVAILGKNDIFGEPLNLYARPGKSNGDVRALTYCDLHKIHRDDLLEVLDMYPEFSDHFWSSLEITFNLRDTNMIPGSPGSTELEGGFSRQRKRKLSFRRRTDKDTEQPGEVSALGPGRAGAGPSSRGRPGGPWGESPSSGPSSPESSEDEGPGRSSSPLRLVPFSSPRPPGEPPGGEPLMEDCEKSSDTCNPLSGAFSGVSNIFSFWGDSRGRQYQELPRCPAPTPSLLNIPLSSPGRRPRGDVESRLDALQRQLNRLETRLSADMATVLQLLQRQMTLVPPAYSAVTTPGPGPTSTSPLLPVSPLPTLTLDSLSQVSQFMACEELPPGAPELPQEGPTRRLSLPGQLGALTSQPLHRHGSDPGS

Row | Compound | hERG current change (%, negative = inhibition) at 10uM [%]
1 | Cc1onc(-c2ccccc2Cl)c1C(=O)N1CCN(C/C=C/c2ccccc2)CC1 | -46.6
2 | Cc1ccc(S(=O)(=O)N2CCC(C(=O)Nc3ccccc3N3CCCC3)CC2)c(C)c1 | 13.2
3 | COC(=O)c1sccc1NC(=O)C12CC3CC(CC(C3)C1)C2 | 23.3
4 | CCCCc1nc2ccccc2n1Cc1nnc2n1-c1ccccc1SC2 | -63
5 | O=C(CC1SC(N2CCCCC2)=NC1=O)Nc1cccc(C(F)(F)F)c1 (centres unmarked) | 12.3
6 | O=C(COc1ccccc1[N+](=O)[O-])N1CCC(Cc2ccccc2)CC1 | -16.1
7 | Cc1cc(C(=O)N/N=C/C=C/c2ccc(Br)cc2)n[nH]1 | 9.77
8 | Cc1ccccc1C(=O)NC1CC2CCCC(C1)N2Cc1ccccc1 (centres unmarked) | -25
9 | CCCCn1c(N)c(N(CC(C)C)C(=O)c2cc(-c3ccc(OC)c(OC)c3)nc3ccccc23)c(=O)[nH]c1=O | 1.67
10 | CNC(=S)c1cc(C(C)(C)C)c(O)c(C(C)(C)C)c1 | 18.6
11 | CC(C)NC(=S)N/N=C1\CCCc2ccccc21 | 10.4
12 | COc1ccc(CNC(=O)C2CCC(CNc3c(N4CCC(C)CC4)c(=O)c3=O)CC2)cc1 (centres unmarked) | 2.45
13 | COc1ccc(NC(=O)CSc2nc(O)cc(=O)[nH]2)c(OC)c1 | 13.6
14 | Cc1nc(=O)c(-c2ccccc2)c(C)n1-c1ccccc1C(=O)O | 21.9
15 | O=C(CNC(=O)c1cccc(F)c1)OCC(=O)N1CCN(C(=O)c2ccco2)CC1 | 22.8
16 | Cc1ccc(C(=O)CCC(=O)OCC(=O)N(CC(C)C)c2c(N)n(Cc3ccccc3)c(=O)[nH]c2=O)cc1 | -33.2
17 | CS(=O)(=O)Nc1cccc(C2=NN(S(C)(=O)=O)C(c3ccc4c(c3)OCO4)C2)c1 (centres unmarked) | -62.3
18 | CC(C)COCC(O)CC(Cc1ccccc1)C(=O)NN (centres unmarked) | 26.1
19 | CC(C)[N+](C)(CCC(C(N)=O)(c1ccccc1)c1ccccc1)C(C)C.[I-] | 19.2
20 | Cc1nnc(SCC(=O)NC23CC4CC(CC(C4)C2)C3)s1 | 22.2
21 | Cc1ccc(NC(=O)C2CCCN(S(=O)(=O)c3cccnc3)C2)cc1C (centres unmarked) | -6.36
22 | c1ccc(Oc2nc(N3CCOCC3)nc(N3CCOCC3)n2)cc1 | -5.6

Row | Compound | hERG current change (%, negative = inhibition) at 10uM [%]
23 | CCn1c(SCC(=O)Nc2nc3ccccc3s2)nnc1-c1ccc(OC)cc1 | -1.62
24 | O=C(CSc1nnc(NC(=O)c2ccc(F)cc2F)s1)NC1CC1 | 12.1
25 | COc1cc2c(C(=O)Nc3ccc4c(c3)OCO4)cn(CC(C)C)c(=O)c2cc1OC | -2.44
26 | CCCOC(=O)c1c(NC(=O)CCCn2nc([N+](=O)[O-])c(Cl)c2C)sc(C(=O)OC)c1C | 6.92
27 | CC(C)C[C@H](NC(=O)c1nc[nH]c1C(=O)N1CC[NH2+]CC1)C(=O)OC(C)(C)C.[Cl-] | -13
28 | CCOc1cccc(/C=C/c2ccc3cccc(O)c3n2)c1OC | 25.2
29 | COc1ccccc1C1C(C(=O)c2ccco2)=C(O)C(=O)N1c1cc(C)on1 (centres unmarked) | -12.8
30 | O=C(Nc1nc2ccc(S(=O)(=O)N3CCOCC3)cc2s1)c1cccs1 | 1.56
31 | COc1ccc(/C=C(/NC(=O)c2ccccc2)C(=O)N/N=C/c2sccc2C)cc1 | -21.6
32 | Cc1cc(C)nc(N2CCCC(C(=O)Nc3nc4ccc(S(C)(=O)=O)cc4s3)C2)n1 (centres unmarked) | -25.7
33 | O=S(=O)(N1CCCCC1)N1CCN(CC(O)COc2ccc3cc(Br)ccc3c2)CC1 (centres unmarked) | 7.33
34 | O=C(NCc1ccc(F)cc1)c1ccc(CNc2c(N3CCOCC3)c(=O)c2=O)cc1 | 17.7
35 | NC(=O)NC(=O)CC1S/C(=N/N=C2\CSC(=O)N2)NC1=O (centres unmarked) | 15.9
36 | Cn1cccc1/C=N/NC(=O)c1cccnc1 | 13.6
37 | OCCNC(=S)Nc1ccc2c(c1)OCCO2 | 9.32
38 | O=C(Nc1nnc(SCc2ccccc2Cl)s1)C1COc2ccccc2O1 (centres unmarked) | 19.7
39 | Brc1ccc2c(c1)C(c1ccc(N3CCOCC3)cc1)=NNC(c1cccs1)=N2 | 4.37
40 | Cc1ccc(CN2CCN(CC(=O)N3CCC(C(N)=O)CC3)C2=O)cc1 | 5.43
41 | COc1cccc(/C=C/C(=O)OCC(=O)Nc2ccc(Cl)cn2)c1 | 28.1
42 | O=C(NCCc1ccc(Cl)cc1)c1ccc(=O)[nH]c1 | 3.03
43 | CC(C)=NOc1nc(N(C)C)nc(N2CCOCC2)n1 | 2.14
44 | COc1nc(NC(C)(C)C)nc(Oc2ccc(=O)n(-c3ccccc3)n2)n1 | -15.1

Row | Compound | hERG current change (%, negative = inhibition) at 10uM [%]
45 | CCOC(=O)C1(Cc2cccc(Cl)c2)CCCN(C(=O)c2cc(C(C)C)nn2C)C1 (centres unmarked) | -13.1
46 | O=C(N/N=C/c1ccc[nH]1)c1cc(-c2ccc(Cl)cc2)nc2ccccc12 | -8.9
47 | Cc1cccc(C)c1Nc1nnc(SC(C)C(=O)Nc2c(C)n(C)n(-c3ccccc3)c2=O)s1 (centres unmarked) | -9.32
48 | COc1ccc(/C=N/NC(=O)c2cccc(OC(F)(F)C(F)F)c2)cc1O | -8.23
49 | O=c1[nH]ncc(N/N=C/c2ccccc2)c1Cl | -5.82
50 | C/C=C/c1ccc(OCC(=O)N2CCc3cc(OC)c(OC)cc3C2)c(OC)c1 | -12.4
51 | CN(C(=O)C1CCC(=O)N(C2CC2)C1)C1CCCCC1 (centres unmarked) | 6.92
52 | O=C(O)C[C@H]1c2ccccc2S(=O)(=O)N1C1CCCCC1 | 18.7
53 | COC(=O)C1=C(C)C(c2ccc(OC)cc2)NC(=S)N1 (centres unmarked) | -0.668
54 | O=S(=O)(NCc1cccnc1)c1cccc2cccnc12 | 6.44
55 | CN(C(=O)/C=C/c1ccccc1)C1CCS(=O)(=O)C1 (centres unmarked) | -0.518
56 | CCC1CCCCN1c1ccc([N+](=O)[O-])cc1/C=N/NC(=O)Cn1c2ccccc2c(=O)c2ccccc21 (centres unmarked) | 0.558
57 | O=C(Nc1cc(S(=O)(=O)N2CCOCC2)ccc1N1CCCC1)c1cccnc1Cl | 24.2
58 | CCCc1ncc(C(O)c2ccc(OC)cc2)n1C (centres unmarked) | -12.6
59 | CC1=C(/C=C/C(C)=N\NC(=O)c2ccncc2)C(C)(C)CCC1 | -28.6
60 | Cn1nnnc1SCc1cc(=O)[nH]c2ccccc12 | 2.31
61 | C=CCOc1ccccc1CN1CCC(C(=O)Nc2cccc(-c3ccn[nH]3)c2)CC1 | -33.9
62 | COC(=O)C(O)(CC(=O)Nc1ccc(C)c(F)c1)C(F)(F)F (centres unmarked) | 18.3
63 | Cc1cc(F)ccc1NC(=O)C1CCN(S(=O)(=O)c2ccc3c(c2)CCCC(=O)N3)CC1 | 13.1
64 | O=C(CSc1nnc(-c2ccccc2)n1CC1CCCO1)N1CCCC1 (centres unmarked) | 17.8
65 | CN(CC(=O)Nc1ccccc1Cl)C(=O)COC(=O)Cc1ccc(F)cc1 | 1.33
66 | CC(C)C(C(=O)NCC1CCCO1)N(C(=O)CNS(=O)(=O)c1ccc(F)cc1)C1CCCCC1 (centres unmarked) | -15

Row | Compound | hERG current change (%, negative = inhibition) at 10uM [%]
67 | Cc1ccc(S(=O)(=O)NCC(=O)OCCOc2cccc(Cl)c2)cc1 | 8.36
68 | CCOC(=O)c1c(C)c(C(=O)NCc2ccc(OC)cc2)c(C)n1C | 6.13
69 | COC(=O)c1c(C)[nH]c(C(=O)/C=C/c2ccc(Cl)cc2)c1C | 3.64
70 | COc1ccccc1NC(=O)COc1cccc2c1CCNC2=O | -12.9
71 | O=C(Nc1ccc(Oc2ccccc2)nc1)C1CCCCN1Cc1cccc(O)c1 (centres unmarked) | -8.21
72 | Cc1cc(NC(=O)CCC(=O)N(CC(=O)NCC2CCCO2)c2cccc(F)c2)no1 (centres unmarked) | 5.37
73 | O=C(NNC(=O)C12CC3CC(CC(C3)C1)C2)[C@@H]1C[C@H]1c1ccccc1 | 1.54
74 | Cc1nn(C(C)C(=O)NCCN2CCCCCC2)c(=O)c2nn(-c3ccccc3)c(C)c12 (centres unmarked) | 21.6
75 | C=CCc1ccccc1OCC(O)CN1CCOCC1 (centres unmarked) | 13.1
76 | CC(=O)Nc1cccc2c1C(=O)N(c1ccccc1OC(C)=O)C2=O | 28.5
77 | O=C(CCc1ccncc1)N1CCCC(Nc2ccc(F)cc2)C1 (centres unmarked) | -13.9
78 | Cc1ccc(-c2cc(-c3cccs3)[nH]n2)c(O)c1 | 1.75
79 | O=C(CCNS(=O)(=O)c1ccc(Br)s1)Nc1ccc(Cl)cc1 | 1.68
80 | C=CCN1C(=O)/C(=C/c2ccccc2)S/C1=N/c1nccs1 | -2.21
81 | COc1cccc(NC(=O)CN(C)C(=O)c2c(C)nn(CC(C)C)c2Cl)c1 | 3.65
82 | O=C(C1=C[C@H](c2ccc(Br)cc2)C[C@H](OCc2ccc(CO)cc2)O1)N1CCOCC1 | -45.1
83 | COc1ccc(OCCSc2nnc(C(C)NC(=O)c3ccccc3F)n2C)cc1 (centres unmarked) | 1.3
84 | O=C(Nc1ccccc1NC(=O)c1ccco1)c1ccccc1 | 4.99
85 | Cc1cc(C)nc(SCc2ccc([N+](=O)[O-])cc2)n1 | -17
86 | CC12CCC(C(=O)NCc3ccc4c(c3)OCO4)(C(=O)C1=O)C2(C)C (centres unmarked) | -6.03
